# Measurements reported in paper PMC12040169 (PLOS Biology, 2025).
# The list shows a part of the results.
# Tested on: T1, C. trachomatis L2/434/Bu expressing GFP (CTL2-GFP)
# T1 construct: L2/434/Bu GFP intracellular growth in HeLa cells
# Design: species or system HeLa; C. trachomatis total inclusion area by high-content imaging, normalised to DMSO
# Conditions: total inclusion area; 28.5 h, 10 µM; inhibitor
# Outline: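 After bulk GFP and resorufin fluorescence reads, cells were fixed, stained with Hoechst and imaged by high-content microscopy. Inclusion area and number (GFP) stood in for chlamydial growth, nuclei count (Hoechst) for host cell viability. MICs were derived as for the bulk readout.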
row,SMILES,% of control remaining
1,COc1cc([N+](=O)[O-])ccc1NC(=S)NNS(=O)(=O)c1cc(Cl)c(Cl)cc1Cl [CBK266863],114.407
2,N#Cc1c2c(c(Nc3ccc(C4CCCCC4)cc3)n3c1nc1ccccc13)CCC2 [CBK263122],96.6443
3,CCN1CCCC1CNC(=O)c1cc(Br)cnc1N(C)S(C)(=O)=O (centres unmarked) [CBK076520],98.2812
4,O=C(CC1(O)C(=O)N(Cc2ccccc2Cl)c2ccccc21)c1cc2ccccc2oc1=O (centres unmarked) [CBK265255],98.7154
5,O=C(Nc1ccc(S(=O)(=O)N2CCCCC2)cc1)c1ccc(NS(=O)(=O)c2ccccc2)cc1 [CBK268348],98.7835
6,O=C(NC1CCCC1)c1cc(=O)n(Cc2ccc(Cl)cc2)c2ccccc12 [CBK294464],133.233
7,C=CCN(CC=C)CCOc1c(C)cc(C)cc1Br [CBK266070G],92.9394
8,O=c1[nH]c2ccc(Cl)cc2c(-c2ccccc2)c1N1CCN(Cc2ccc3c(c2)OCO3)CC1 [CBK265776],78.6829
9,CC(=O)Nc1cc(C(=O)NCc2ccc(F)cc2)ccc1Sc1ccc(Cl)cc1 [CBK294468],97.2848
10,CN(C)Cc1cc(-c2ccccc2F)nn1CCNC(=O)C1CCC1 [CBK283471],90.8009
11,NC(=O)C(=O)c1c(-c2ccccc2)cc2ccccn12 [CBK288466],34.8844
12,Cc1cc(=O)n(CC(=O)N2CCC3(CCCN(C(C)C)C3=O)C2)nc1C (centres unmarked) [CBK307482],99.7269
13,Cc1ccc(-c2nc(C3CCCN(C(=O)NC4CCCCC4)C3)n3ccccc23)cc1 (centres unmarked) [CBK047241],66.6753
14,COC(=O)c1c(NC(=S)Nc2ccc(Br)cn2)sc2c1CCC(C)C2 (centres unmarked) [CBK266962],116.597
15,CC(C)n1c(NCc2nc3ccccc3n2C)nc2ccccc21 [CBK265571],94.9699
16,Clc1ccc(CN2CCN(c3nccnc3OCc3cccnc3)CC2)cc1Cl [CBK083128T],92.9615
17,Cc1ccc(C(=O)Nc2cccc(-c3nc4ncccc4o3)c2C)cc1[N+](=O)[O-] [CBK262793],112.263
18,CS(=O)(=O)Nc1ccc(C(=O)N2CC(=O)Nc3ccccc32)cc1 [CBK269827],76.7586
19,Cc1c(-c2cccc(Cl)c2)nc2ccccc2c1C(=O)NCCc1ccc(S(N)(=O)=O)cc1 [CBK267784],98.4251
20,Cc1nn(C)c(Cl)c1S(=O)(=O)NCc1ccc(C(F)(F)F)c(F)c1 [CBK062111],103.261
21,CC(=O)c1ccc(-c2ccc(C(=O)NCCc3ccc(S(N)(=O)=O)cc3)c(N(C)C(C)=O)n2)s1 [CBK076621],109.281
22,CCCC(=O)c1ccc(S(=O)(=O)N2CCCN(Cc3ccc(C#N)cc3)CC2)cc1 [CBK062895],42.7634
23,O=C(C1CCCC1)N1CCCc2cc(C(O)CN3CCCC3)ccc21 (centres unmarked) [CBK282145],77.6787
24,CC(C)(C)c1ccc(-c2nc(N)cc3ccccc23)cc1 [CBK085720],69.29
25,COc1cccc(/C=C2/SC(=S)NC2=O)c1OCCCOc1ccccc1C [CBK264442],108.7
26,CN(C)CCOCCS(=O)(=O)c1ccc(N2CCC(c3ccc(Cl)cc3)=N2)cc1 [CBK018115],16.9445
27,Cc1cc(C)nc(Nc2ncc(O)n2-c2ccccc2C)n1 [CBK263024],101.427

row,SMILES,% of control remaining
1,Cc1ccc(NC(=O)c2ccc(-c3cccc([N+](=O)[O-])c3)o2)cc1-c1nc2ncccc2o1 [CBK262947],64.7269
2,O=C(O)CCc1ccc(S(=O)(=O)N2CCOCC2)cc1 [CBK287224],79.773
3,O=C(C1CCCC1)N1C[C@@H]2CCCCN(CC3CC3)[C@@H]2C1 [CBK285493],99.7126
4,O=C(Cn1cc(C(=S)N2CCOCC2)c2ccccc21)Nc1ccc2c(c1)OCO2 [CBK266703],107.961
5,Cc1cc(Cl)c(OCCN2CCCCCC2)c(Br)c1 [CBK266049G],79.9824
6,CN1CCC(CNC(=O)C2(c3ccccc3F)CC2)(N(C)C)CC1 [CBK282604],116.147
7,O=C(c1nccs1)C1CCN(C(=O)Cc2ccccc2F)CC1 [CBK284161],87.3976
8,CC(C)(C)NC(=O)c1ccc(-n2ccnc2)c(-n2cccc2)c1 [CBK284811],111.292
9,CCN(CC)C(=O)CN1CCC(c2ccc(F)cc2)CC1 [CBK285475],98.1076
10,Cc1noc(C)c1S(=O)(=O)Nc1cccc(C(=O)N2CCN(C)CC2)c1 [CBK038972],90.0699
11,COCC(=O)N1CCC(Cc2ccc(-c3cccc(C)c3)cc2)(C(=O)NC(C)C)CC1 [CBK285759],106.049
12,O=C1CCCCC1SCn1nnc2ccccc21 (centres unmarked) [CBK011412],60.6004
13,Cc1ccc(N2C(=O)CSC23C(=O)Nc2ccc(Br)cc23)cc1 (centres unmarked) [CBK093453],83.8017
14,C/C(=N\O)c1ccc(S(N)(=O)=O)cc1 [CBK007871],107.392
15,CN(C)C(C)(C)COc1ncccc1OCCO [CBK042184],98.9409
16,CC(C)(C)OC(=O)N1CCCN(Cc2nnc(-c3ccco3)o2)CC1 [CBK305271],73.7955
17,COc1ccc(N2CCN(C(=O)CCC(F)(F)F)CC2)cc1 [CBK091419],87.3335
18,c1ccc2cc(-c3cc(Nc4ccc5[nH]ccc5c4)ncn3)ccc2c1 [CBK090853],89.2019
19,COc1ccc(C)cc1S(=O)(=O)N(CC(=O)O)c1ccc(Cl)c(Cl)c1 [CBK269095],96.5042
20,CCCNc1cncc(-c2ccc(OCC)cc2)n1 [CBK065845],73.278
21,COc1ccc(CCC(=O)Nc2cc(N3CCNCC3)ncn2)cc1 [CBK004231T],88.8826
22,Cc1cnc(CNC(=O)N2CCN(c3ccccc3)CC2)cn1 [CBK155174],50.326
23,CCC(C)NC(=O)c1ccc2nccnc2c1 (centres unmarked) [CBK268921],89.9343
24,Cn1nc(C(Cc2ccccc2)NC(=O)c2ccco2)c2cccnc21 (centres unmarked) [CBK285223],127.02
25,CCC(Oc1ccccc1)C(=O)Nc1sc2c(c1C#N)CCCC2 (centres unmarked) [CBK262091],82.2236
26,Fc1ccc2[nH]c3c(c2c1)CCOC31CCN(C/C=C\c2ccccc2)CC1 [CBK040141],8.541
27,Cc1csc(Nc2cccc(C3CCCN3C(=O)CCOc3ccccc3C)n2)n1 (centres unmarked) [CBK285977],87.0822

row,SMILES,% of control remaining
1,CCN1CC2(CCN(CCCn3c(=O)[nH]c4ccccc43)CC2)c2ccccc21 [CBK131483],95.7666
2,CCNc1nc(-c2ccc3c(c2)CCCN3S(C)(=O)=O)cs1 [CBK305861],65.2604
3,CCN(CC)CCn1c(=N)n(CC(=O)c2ccc(Cl)c(Cl)c2)c2ccccc21 [CBK263455B],114.457
4,CCOc1ccc(-c2cncc(NCCc3c[nH]c4ccccc34)n2)cc1 [CBK065876],112.528
5,COc1ccc(Nc2ccc(-c3ccc(C(=O)O)cc3)cn2)cc1 [CBK037654],76.2556
6,O=C(Cc1ccccc1)N/N=C/C1CC2CC1CC2C(F)(F)F (centres unmarked) [CBK021488],98.455
7,Cc1c[nH]c(CN(C)c2cc([C@H]3C[C@@H](N)C3)nc(N3CCCC3)n2)n1 [CBK306798],62.492
8,CCOC(=O)C1CCCN(C(=O)Nc2cc(C)on2)C1 (centres unmarked) [CBK305661],62.2815
9,CN(C)c1ccc(NC(=O)CC2S/C(=N/c3ccccc3)N(c3ccccc3)C2=O)cc1 (centres unmarked) [CBK265644],91.8935
10,Cc1cccc(C)c1NC(=O)Cn1c(SCC(N)=O)nc2ccccc21 [CBK266684],88.749
11,O=C1CCC(=O)N1CCOc1nccnc1OC1CCN(Cc2ccc(Cl)c(Cl)c2)CC1 [CBK084335],83.2762
12,O=C(c1ccccn1)N1CCCC(c2cc3ccccc3cn2)C1 (centres unmarked) [CBK282832],123.663
13,c1cnn(CCCNc2nc3nonc3nc2N2CCCCCC2)c1 [CBK307318],60.2873
14,Cc1nnnn1-c1cc(NC(=O)NCC2CCCO2)ccc1F (centres unmarked) [CBK305528],73.5053
15,CN1CCCN(c2cnn(Cc3ccc(Cl)s3)c(=O)c2)CC1 [CBK307123],57.3258
16,CCCNc1nccnc1-c1cccc(CO)c1 [CBK088897],119.73
17,Cc1ccc(CN(Cc2cncn2C)C2CC(C)(C)NC(C)(C)C2)o1 [CBK283192],87.2947
18,Cc1ccc2c(c1)C(=O)NCC1(CCN(Cc3ccccc3)CC1)O2 [CBK285048],108.874
19,OCCNc1nc(O)cc(C(F)(F)F)n1 [CBK001804],76.8385
20,Nc1ccc(CCNC(=O)c2cnc(-c3ccc(Cl)cc3)c(-c3ccco3)c2)cc1 [CBK036686],73.0094
21,O=C(O)c1ccc(/C=N/Nc2cccc3cccnc23)cc1 [CBK262372],107.946
22,Nc1ncc(-c2occc2C=O)nc1-c1ccc(F)c(Cl)c1 [CBK064005],84.7531
23,COc1ccc2c(c1Br)C=C(n1ccnc1)CC2 [CBK017808],52.1898
24,COCC(=O)N1CCc2sccc2C1c1ccc(NCc2ccc(F)cc2)cc1 (centres unmarked) [CBK286445],108.839
25,CSc1ccc(CNCCc2c[nH]c3ccccc23)cc1 [CBK262126],98.0352
26,CN1CC(C(=O)N2C3CCC2CC(c2ccc(F)cc2)C3)CC1=O (centres unmarked) [CBK283769],101.412
